Measurements: the BET-seq Pho4 binding data (Le et al. 2018)
Some of the results follow. These are noisy estimates, calculated here from bound and input reads.

The sequences below were run against T1, Pho4 (S. cerevisiae) (UniProt P07270) (assay: relative binding free energy (BET-seq); higher = weaker binding). Conditions: reference: library average.
T1 sequence: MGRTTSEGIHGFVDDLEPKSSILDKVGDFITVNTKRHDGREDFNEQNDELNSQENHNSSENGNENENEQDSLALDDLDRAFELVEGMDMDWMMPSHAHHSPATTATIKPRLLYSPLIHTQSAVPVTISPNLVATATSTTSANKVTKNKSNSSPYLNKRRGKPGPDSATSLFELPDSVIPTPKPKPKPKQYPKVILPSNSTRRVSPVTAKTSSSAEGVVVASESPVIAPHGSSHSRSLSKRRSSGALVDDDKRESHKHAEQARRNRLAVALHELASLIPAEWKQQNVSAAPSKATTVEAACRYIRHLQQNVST

| Sequence | relative binding free energy |
| --- | --- |
| CCAGGCACGTGAGGGG | 0.03 kcal/mol |
| TTACTCACGTGTTGTA | 0.14 kcal/mol |
| AAAGTCACGTGGGAGT | -0.02 kcal/mol |
| GAGTTCACGTGCGTTT | 0.4 kcal/mol |
| TGACACACGTGTAGGT | -0.06 kcal/mol |
| TATCGCACGTGTAGGA | -0.04 kcal/mol |
| TTTCTCACGTGGTGTC | 0.19 kcal/mol |
| CATGGCACGTGGCGTT | -0.08 kcal/mol |
| GGAGACACGTGTTGTG | -0.06 kcal/mol |
| AGGAGCACGTGGGTGG | -0.22 kcal/mol |
| TGCTTCACGTGTATAG | 0.07 kcal/mol |
| GCATGCACGTGGGTGC | -0.09 kcal/mol |
| GGGTGCACGTGGGTAG | -0.23 kcal/mol |
| GGTTGCACGTGGCATA | -0.03 kcal/mol |
| AGTATCACGTGGGGTA | -0.15 kcal/mol |
| TGTAGCACGTGGTTAT | -0.04 kcal/mol |
| TAGATCACGTGATGTA | 0.25 kcal/mol |
| GGGGACACGTGACATG | 0.07 kcal/mol |
| TTTCACACGTGTGCTT | 0.23 kcal/mol |
| CTGGACACGTGGTGGG | -0.06 kcal/mol |
| TGAGTCACGTGTAGCA | 0.09 kcal/mol |
| AGCCTCACGTGTGGGG | 0.14 kcal/mol |
| GGTGACACGTGGGGCC | -0.17 kcal/mol |

| Sequence | relative binding free energy |
| --- | --- |
| GTGTTCACGTGTAAAG | 0.1 kcal/mol |
| GTGAGCACGTGTGTTG | -0.1 kcal/mol |
| AAGAGCACGTGGAAGG | -0.14 kcal/mol |
| GTGGGCACGTGAGGCG | 0.22 kcal/mol |
| GCCTGCACGTGGGTGG | -0.14 kcal/mol |
| GGAGACACGTGAGGAA | 0.25 kcal/mol |
| AATTGCACGTGGGTCA | -0.03 kcal/mol |
| GAGTGCACGTGTTCTT | 0.03 kcal/mol |
| TTATTCACGTGTTGAA | 0.24 kcal/mol |
| GTATGCACGTGAGTAT | 0.15 kcal/mol |
| ATACGCACGTGAGGTT | 0.05 kcal/mol |
| GGTAGCACGTGACTTG | 0.07 kcal/mol |
| TTGACCACGTGTTTGT | 0.02 kcal/mol |
| GTGGCCACGTGGTGCT | -0.21 kcal/mol |
| GGATGCACGTGGTTGT | 0.04 kcal/mol |
| TTTTTCACGTGTATGA | 0.24 kcal/mol |
| CGTAACACGTGGGAGT | -0.17 kcal/mol |
| GCTTACACGTGTTTTA | 0.22 kcal/mol |
| ATATACACGTGATGAT | 0.04 kcal/mol |
| TTGGGCACGTGGAACT | 0.04 kcal/mol |
| GATTGCACGTGGGGGG | -0.07 kcal/mol |
| CTGTGCACGTGGGTCT | -0.15 kcal/mol |
| TTAAACACGTGGGTAT | -0.12 kcal/mol |

| Sequence | relative binding free energy |
| --- | --- |
| ATGATCACGTGGTGGG | 0.18 kcal/mol |
| GTGTCCACGTGGTGGA | -0.08 kcal/mol |
| TCGTGCACGTGATCGG | 0.24 kcal/mol |
| GGGCCCACGTGGGTAG | -0.2 kcal/mol |
| TCTTTCACGTGTCATT | 0.2 kcal/mol |
| CGAGGCACGTGGATGT | -0.11 kcal/mol |
| GGGTGCACGTGTAGCC | 0.19 kcal/mol |
| GGGCGCACGTGGAGGT | -0.02 kcal/mol |
| TGGGACACGTGATTAA | 0.26 kcal/mol |
| TTGGTCACGTGCAAGT | 0.08 kcal/mol |
| ATGTGCACGTGTTCTG | -0.01 kcal/mol |
| CGGAGCACGTGAGAGG | 0.22 kcal/mol |
| TATAACACGTGTCGGG | 0.01 kcal/mol |
| GCTGGCACGTGTTATA | 0 kcal/mol |
| AGATGCACGTGTGTAC | 0.08 kcal/mol |
| TAGGTCACGTGGCTGT | 0.01 kcal/mol |
| TTTGGCACGTGTGTGT | 0.02 kcal/mol |
| TTAATCACGTGATAGG | 0.19 kcal/mol |
| AGGGACACGTGTATTA | 0.02 kcal/mol |
| ATGTCCACGTGAGGGG | 0.2 kcal/mol |
| AGTTGCACGTGTATAA | 0.06 kcal/mol |
| AACGTCACGTGGGAGG | 0.11 kcal/mol |
| ATGTGCACGTGGCTGA | 0.01 kcal/mol |

| Sequence | relative binding free energy |
| --- | --- |
| GCACACACGTGGGGGG | -0.23 kcal/mol |
| CTTTACACGTGTTTTT | 0.03 kcal/mol |
| CATTGCACGTGGGGAG | -0.03 kcal/mol |
| GTGGTCACGTGGGCAT | 0.07 kcal/mol |
| CCATGCACGTGGTGTT | -0.12 kcal/mol |
| CGTTTCACGTGATAGG | 0.31 kcal/mol |
| AAAGACACGTGTTTGT | -0.07 kcal/mol |
| TAGTTCACGTGTGGCG | 0.18 kcal/mol |
| AGATACACGTGCGGTT | -0.07 kcal/mol |
| TATGCCACGTGTTGGG | -0.11 kcal/mol |
| CTTGTCACGTGAAGAG | 0.17 kcal/mol |
| TAAGGCACGTGGGTTG | -0.11 kcal/mol |
| CGGGCCACGTGTGGGT | 0.03 kcal/mol |
| TACGTCACGTGATAGG | 0.17 kcal/mol |
| TATGGCACGTGAACGG | 0.1 kcal/mol |
| TATTGCACGTGTAAAG | 0.2 kcal/mol |
| GAATTCACGTGGAGGG | 0.27 kcal/mol |
| TTGGACACGTGCGTTA | -0.07 kcal/mol |
| TGGGACACGTGTGTTC | 0.16 kcal/mol |
| CTGGGCACGTGATAGG | -0.12 kcal/mol |
| GGAAGCACGTGTTTTA | 0.08 kcal/mol |
| GTTATCACGTGTATTT | 0.25 kcal/mol |
| AGCTGCACGTGTTGGG | 0 kcal/mol |

| Sequence | relative binding free energy |
| --- | --- |
| TGAAGCACGTGGTAAG | -0.14 kcal/mol |
| AGTTGCACGTGATGCG | -0.1 kcal/mol |
| TGACACACGTGTTTGT | 0.03 kcal/mol |
| TTCATCACGTGAGGGT | 0.39 kcal/mol |
| GTTTACACGTGAGTGA | 0.15 kcal/mol |
| TAGGTCACGTGTAGTC | 0.22 kcal/mol |
| TTAGTCACGTGAAAAG | 0.22 kcal/mol |
| AGGTTCACGTGGAGCT | 0.3 kcal/mol |
| ATCGTCACGTGAAGGG | 0.2 kcal/mol |
| TGTCGCACGTGGGGAG | -0.25 kcal/mol |
| TGCTGCACGTGCTGTG | -0.07 kcal/mol |
| GGCTGCACGTGTATAT | 0.15 kcal/mol |
| CGTTTCACGTGGCATT | 0.21 kcal/mol |
| AGAATCACGTGGTATT | 0.06 kcal/mol |
| CGAGTCACGTGAGGGC | 0.26 kcal/mol |
| CTGATCACGTGTTAGG | 0.12 kcal/mol |
| TCGTGCACGTGAGGCA | 0.35 kcal/mol |
| TCCTTCACGTGTGGGG | 0.29 kcal/mol |
| GTGGACACGTGAGATG | 0.25 kcal/mol |
| CCGTGCACGTGTGGTT | -0.08 kcal/mol |
| AGTGTCACGTGGGGGT | -0.05 kcal/mol |
| TTTTACACGTGGCATT | -0.08 kcal/mol |
| GTTTTCACGTGGTGGC | 0.26 kcal/mol |
